Laboratory results as given in PubChem BioAssay AID504333 (National Center for Advancing Translational Sciences (NCATS), 2011).
In all, about 360,000 compounds went through this assay and about 16,000 (4.4%) were called active. The inconclusive results got no clear call from the source; some entries with a clear call stand among them for comparison. Calls follow the shape of the dose curve; as a rule, active = well fitted inhibition curve with a large enough effect; inconclusive = small, poorly fitted or top-dose-only effect; inactive = no such curve, though single readings can be large or run the other way. Potencies beside an inconclusive call are fits to weak or partial responses and may not hold up.

These molecules were tested against Bromodomain adjacent to zinc finger domain protein 2B (Homo sapiens) (UniProt Q9UIF8) (assay: qHTS Assay for Inhibitors of BAZ2B). Conditions: AlphaScreen BAZ2B-H3K14Ac peptide displacement; series mostly up to 114 µM.
Method in brief: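 Multi-concentration screen (max 110 uM) measuring displacement of acetylated histone H3 peptide from BAZ2B by AlphaScreen, using 50 nM protein, 50 nM peptide and 10 ug/mL streptavidin donor plus Ni-chelate acceptor beads.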
Also: nearly all actives have a fitted effect of over 60% in size.
Potency is read from the fitted curve at half-maximal effect; tags tell the direction and shape of the fitted curve.

Chain of UniProt Q9UIF8 (Q9UIF8 whole entry, looked up, the tested form may be a part): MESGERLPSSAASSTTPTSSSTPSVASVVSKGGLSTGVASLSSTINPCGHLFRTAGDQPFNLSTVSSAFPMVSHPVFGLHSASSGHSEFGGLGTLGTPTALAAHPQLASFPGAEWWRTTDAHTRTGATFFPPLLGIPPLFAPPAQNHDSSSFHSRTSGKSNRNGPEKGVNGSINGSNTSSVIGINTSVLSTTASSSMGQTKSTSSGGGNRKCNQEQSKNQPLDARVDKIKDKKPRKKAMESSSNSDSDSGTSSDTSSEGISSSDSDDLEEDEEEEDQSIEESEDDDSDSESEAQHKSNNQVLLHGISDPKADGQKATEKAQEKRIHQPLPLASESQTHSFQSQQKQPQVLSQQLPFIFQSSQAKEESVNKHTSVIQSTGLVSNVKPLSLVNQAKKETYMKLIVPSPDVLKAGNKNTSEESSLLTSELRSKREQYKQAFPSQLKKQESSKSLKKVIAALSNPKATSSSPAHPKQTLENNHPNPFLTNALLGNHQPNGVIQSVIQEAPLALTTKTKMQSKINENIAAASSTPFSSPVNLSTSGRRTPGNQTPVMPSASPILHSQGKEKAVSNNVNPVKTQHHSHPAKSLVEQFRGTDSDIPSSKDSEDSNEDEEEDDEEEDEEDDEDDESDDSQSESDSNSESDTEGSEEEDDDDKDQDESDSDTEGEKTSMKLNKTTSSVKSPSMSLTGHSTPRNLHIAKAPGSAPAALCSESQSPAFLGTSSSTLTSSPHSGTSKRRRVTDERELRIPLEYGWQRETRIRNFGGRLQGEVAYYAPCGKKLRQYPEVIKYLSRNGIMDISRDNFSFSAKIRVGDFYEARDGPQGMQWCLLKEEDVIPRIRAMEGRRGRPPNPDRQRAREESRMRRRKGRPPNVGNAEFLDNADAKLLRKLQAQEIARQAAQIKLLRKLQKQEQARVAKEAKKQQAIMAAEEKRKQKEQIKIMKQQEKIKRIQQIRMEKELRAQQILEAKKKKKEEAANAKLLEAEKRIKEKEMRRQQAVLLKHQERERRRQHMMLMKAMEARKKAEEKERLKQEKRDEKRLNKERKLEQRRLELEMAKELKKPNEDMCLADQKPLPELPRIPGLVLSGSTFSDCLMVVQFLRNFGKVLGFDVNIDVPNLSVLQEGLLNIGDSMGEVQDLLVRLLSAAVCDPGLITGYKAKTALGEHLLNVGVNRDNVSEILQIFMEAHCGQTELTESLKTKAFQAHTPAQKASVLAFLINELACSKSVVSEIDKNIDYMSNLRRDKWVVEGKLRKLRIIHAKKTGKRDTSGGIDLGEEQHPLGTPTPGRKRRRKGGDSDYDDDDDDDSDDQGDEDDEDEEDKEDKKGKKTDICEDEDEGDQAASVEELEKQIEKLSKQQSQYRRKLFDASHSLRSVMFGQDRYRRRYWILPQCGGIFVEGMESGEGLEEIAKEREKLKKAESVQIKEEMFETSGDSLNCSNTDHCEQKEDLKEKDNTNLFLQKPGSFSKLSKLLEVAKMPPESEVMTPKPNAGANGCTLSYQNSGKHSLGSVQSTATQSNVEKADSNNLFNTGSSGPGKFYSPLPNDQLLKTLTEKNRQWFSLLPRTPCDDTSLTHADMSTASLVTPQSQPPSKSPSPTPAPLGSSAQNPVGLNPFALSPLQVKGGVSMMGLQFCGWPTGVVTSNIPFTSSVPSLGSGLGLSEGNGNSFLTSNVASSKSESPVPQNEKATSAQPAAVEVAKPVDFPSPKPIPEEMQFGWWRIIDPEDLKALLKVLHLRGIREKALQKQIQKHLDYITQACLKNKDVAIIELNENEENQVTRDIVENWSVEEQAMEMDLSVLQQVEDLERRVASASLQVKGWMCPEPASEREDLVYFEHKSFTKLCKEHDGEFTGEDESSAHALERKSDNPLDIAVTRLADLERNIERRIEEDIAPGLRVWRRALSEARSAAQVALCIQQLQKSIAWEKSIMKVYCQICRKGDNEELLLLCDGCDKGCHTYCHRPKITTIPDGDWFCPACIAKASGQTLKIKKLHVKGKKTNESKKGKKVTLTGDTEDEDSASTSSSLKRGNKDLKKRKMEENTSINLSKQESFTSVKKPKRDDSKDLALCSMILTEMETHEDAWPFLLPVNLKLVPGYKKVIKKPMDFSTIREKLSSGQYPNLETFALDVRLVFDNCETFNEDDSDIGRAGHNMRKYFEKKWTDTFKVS

SMILES	Potency
CCc1ccc(C(=O)Cn2ccsc2=N)cc1	inconclusive: 56.2 µM [inhibitor, partial curve]
Cc1ccc(CSc2nnc(SCC(=O)N/N=C/C=C/c3ccccc3[N+](=O)[O-])s2)cc1	inactive
Cc1ccccc1Nc1c(-c2c[nH]c3ccccc23)nc2ccc(Cl)cn12	inconclusive: 22.4 µM [inhibitor, full curve]
Cc1cc(Cl)c(OCCCNCc2ccccc2)c(Br)c1	inconclusive: 89.1 µM [inhibitor, single point]
COCc1cc(C2C(C(=O)c3ccco3)=C(O)C(=O)N2CCOCCO)ccc1O (centres undefined)	inconclusive: 89.1 µM [inhibitor, single point]
Oc1cccc(/C=N/NC(=S)Nc2cccnc2)c1O	active: 5.62 µM
CN(C(=O)CSc1nc2cc(Cl)ccc2c(=O)n1Cc1ccco1)C1CCS(=O)(=O)C1 (centres undefined)	inconclusive: 70.8 µM [inhibitor, single point]
Cc1cc2c(Nc3ccc(O)cc3)ncnc2s1	inconclusive: 89.1 µM [inhibitor, single point]
Fc1ccccc1N1CCN(C(c2ccccn2)c2nnnn2C2CCCCC2)CC1 (centres undefined)	active: 79.4 µM
CSc1ncc(Cl)c(C(=O)Nc2c(C(=O)c3ccc(Cl)cc3)oc3ccccc23)n1	inactive
S=c1oc(-c2ccncc2)nn1CCc1ccncc1	active: 56.2 µM
CC(=O)Nc1cccc(NC(=O)C(=O)NCC(c2ccco2)N2CCc3ccccc32)c1 (centres undefined)	active: 50.1 µM
C#CCN1CC(C)/C(=N/O)CC1C (centres undefined)	inconclusive: 70.8 µM [inhibitor, single point]
O=[N+]([O-])c1ccc(NCc2ccccc2N2CCC(CO)CC2)nc1	inconclusive: 79.4 µM [inhibitor, single point]
COc1ccc(C2CC(c3cccs3)=NN2C(=O)CSc2nc(=O)n3cc(C)ccc3n2)cc1 (centres undefined)	inactive
COC(=O)c1c(NC(=O)/C=C/C(=O)O)sc(C)c1-c1ccc(C(C)C)cc1	inconclusive: 50.1 µM [inhibitor, partial curve]
O=C(CSc1nc(-c2ccccc2)cs1)NCc1ccco1	inactive
COc1cccc(/C=N/NC(=O)c2c(C)nc3ccc(Br)cn23)c1O	active: 7.94 µM
CN(C)C(=O)c1ccc(NC(=O)CN2CCc3cc4c(cc3C2)OCCCO4)cc1	inactive
Cn1c(=O)c2c(nc(N3CCCCCC3)n2Cc2cccc3ccccc23)n(C)c1=O	inconclusive: 35.5 µM [inhibitor, full curve]
CCN(CC)c1ccc(NC(=S)NC(=O)c2ccco2)cc1	active: 17.8 µM
O=C(NC(=S)N1CCN(C/C=C/c2ccccc2)CC1)c1ccc(Cl)nc1	inconclusive: 79.4 µM [inhibitor, single point]
Clc1ccc(OCCn2ccnc2)cc1Cl	active: 50.1 µM
Cc1ccc([N+](=O)[O-])cc1S(=O)(=O)NCCc1c(C)[nH]c2ccccc12	active: 50.1 µM
CC(=O)Nc1ccc2ccc3cccc4ccc1c2c34	inactive

SMILES	Potency
CCOc1ccc(NCCC(=O)c2ccc3c(c2)OCO3)cc1	active: 39.8 µM
Cc1cc(NC(=O)CSc2nc3ccccc3cc2C#N)no1	inconclusive: 89.1 µM [inhibitor, single point]
CCN1CCc2c(sc(-n3cccc3)c2C(C)NC(=O)Nc2ccc(C(=O)OC)cc2)C1 (centres undefined)	inconclusive: 50.1 µM [inhibitor, partial curve]
COc1ccc(C)c2sc(N(Cc3cccnc3)C(=O)c3cccs3)nc12	inactive
Cc1cc(N)ccc1NC(=O)c1ccccc1	inactive
O=C(CCN1C(=O)[C@H]2CC=CC[C@H]2C1=O)NCc1nc(-c2ccc(Cl)cc2)no1	inconclusive: 79.4 µM [inhibitor, single point]
O=C(CN1CCc2ccccc21)NC(c1ccccc1)c1ccccc1	inconclusive: 79.4 µM [inhibitor, single point]
O=C(C1=C(O)C(=O)N(CCc2ccccc2)C1c1cccnc1)c1ccco1 (centres undefined)	inconclusive: 79.4 µM [inhibitor, single point]
Cn1nnc(NC(=S)NC(=O)c2ccco2)n1	inconclusive: 79.4 µM [inhibitor, single point]
Cc1cc(C)c(S(=O)(=O)c2ccccc2)c(OC(=O)c2ccc(Cl)cc2Cl)n1	active: 56.2 µM
Cc1ccccc1NNC(=O)C(=O)NNc1ccccc1C	active: 50.1 µM
O=S(=O)(NC1CCCCC1N1CCN(c2ccc(F)cc2)CC1)c1ccc(Cl)cc1 (centres undefined)	inconclusive: 25.1 µM [inhibitor, single point]
O=C(CNC(=O)c1ccccc1F)OCC(=O)c1ccc(Cl)s1	inconclusive: 89.1 µM [inhibitor, single point]
COc1ccc(C)cc1Nc1nc(-c2ccccc2O)nc2ccccc12	inactive
CC1(C)CC(=O)C2=C(C1)N1C(=C(C#N)C2c2ccc(Cl)cc2)N=C(N)c2ccccc21 (centres undefined)	active: 50.1 µM
Cc1cc(-c2csc(N)n2)c(C)n1CCC(C)C	inconclusive: 28.2 µM [inhibitor, single point]
CCOc1ccc(NC(=O)Cc2ccccc2)c([N+](=O)[O-])c1	inconclusive: 44.7 µM [inhibitor, partial curve]
CCOC(=O)c1c(-c2ccc(C)cc2)csc1NC(=O)CCN1CCOCC1	active: 31.6 µM
Cc1ccc(NC(=O)Cn2c(=O)n(Cc3ccc4c(c3)OCO4)c(=O)c3oc4ccccc4c32)cc1C	inconclusive: 89.1 µM [inhibitor, single point]
CCOC(=O)c1c(C)oc2nc(C)nc(NCCc3ccc(Cl)cc3)c12	inconclusive: 31.6 µM [inhibitor, single point]
COC(=O)c1cc(CNC(=O)CCCSc2ccccc2)ccc1OC	inactive
CC(=C\c1ccccc1)/C=C1/SC(=S)N(CCC(=O)O)C1=O	inconclusive: 56.2 µM [inhibitor, partial curve]
COC(=O)c1sc(S(=O)(=O)NCCC(=O)O)c(C(=O)OC)c1C	inactive
CC(C)c1ccc(NC(=O)Cn2nnc(C(=O)NCc3ccc4c(c3)OCO4)c2N)cc1	inactive
CCOC(=O)C1CCN(Cc2cn3c(-c4ccc(OC)cc4)nnc3s2)CC1	inconclusive: 89.1 µM [inhibitor, single point]

SMILES	Potency
O=C1c2cccnc2C(=O)N1Cc1ccc(Cl)cc1	inconclusive: 89.1 µM [inhibitor, single point]
O=C(O)c1cccc(NC(=O)c2cc(-c3cccc(Cl)c3)nc3ccccc23)c1	inconclusive: 79.4 µM [inhibitor, single point]
CC1=C(C(=O)OC(C)C)C(c2ccco2)NC(=O)N1 (centres undefined)	inconclusive: 100 µM [inhibitor, single point]
O=C(Nc1ccccc1)Nc1ccc(Oc2cccnc2)nc1	inconclusive: 89.1 µM [inhibitor, single point]
Cc1ccc(C(=O)N2CCN(c3ccc(NC(=O)COc4ccccc4C)cc3)CC2)cc1	active: 35.5 µM
Cc1ccc(-c2noc(-c3ccc(N4CCCC4)c([N+](=O)[O-])c3)n2)cc1	inconclusive: 89.1 µM [inhibitor, single point]
CCOc1cccc(C2C(C(=O)c3ccc(C)o3)=C(O)C(=O)N2c2nccs2)c1 (centres undefined)	inconclusive: 50.1 µM [inhibitor, partial curve]
CN(C(=O)CSc1nc(-c2ccccc2)cn1N)C(c1ccccc1)c1ccccc1	active: 44.7 µM
CCN(c1ccccc1)c1cc(C)nc2nc(C)nn12	inactive
CN(C)/C=C/C(=O)c1ccc(N2CCN(c3ncc(C(F)(F)F)cc3Cl)CC2)cc1	inconclusive: 11.2 µM [inhibitor, full curve, poor fit]
CN(C)C1NC(=O)c2cc(-c3ccccc3)sc2N1 (centres undefined)	active: 50.1 µM
Cc1c(NC(=O)/C(C#N)=C/c2ccc(-c3ccccc3Cl)o2)c(=O)n(-c2ccccc2)n1C	inconclusive: 44.7 µM [inhibitor, partial curve]
O=C(O)CCn1c(C2CCCCC2)nc2ccccc21	inconclusive: 100 µM [inhibitor, single point]
CNS(=O)(=O)c1cccc(C(=O)OCC(=O)c2cc(C)n(-c3ccc4c(c3)OCO4)c2C)c1	inconclusive: 44.7 µM [inhibitor, partial curve]
CCN(CC)CCCNC(=O)c1ccc2c(c1)sc1nc(-c3ccc(C)cc3)cn12	active: 39.8 µM
COCCn1c(-c2ccc(Br)cc2)csc1=Nc1cccnc1	active: 11.2 µM
O=C(Oc1ccc(N(Cc2cccs2)C2=NS(=O)(=O)c3ccccc32)cc1)c1ccccc1F	inconclusive: 89.1 µM [inhibitor, single point]
CCOC(=O)C1CCN(Cc2ccccn2)CC1	active: 50.1 µM
COc1cc(OC)cc(-c2sc3ccc(OC)cc3c2C#CCCO)c1	inconclusive: 89.1 µM [inhibitor, single point]
COc1ccc(NC(=O)NC(C)c2c(-n3cccc3)sc(C)c2C)cc1OC (centres undefined)	active: 35.5 µM
CCN(CC)CCNc1ncnc2c1[nH]c1ccc(OC)cc12	inactive
COc1ccc(-c2nc3ccccc3o2)cc1NC(=O)c1cccnc1	inconclusive: 39.8 µM [inhibitor, single point]
Cc1ccc(Cl)cc1NC(=O)CCn1cccc1	inconclusive: 89.1 µM [inhibitor, single point]
COc1cc(-c2noc(C)c2/C=C/c2ccc(N)cc2)cc(OC)c1OC	inconclusive: 39.8 µM [inhibitor, partial curve]
